Laboratory results: the supplement of paper PMC8728848
Some of the results follow.

How the values were obtained:
Test in all cases: glycan array binding signal (z-score within array); higher = stronger binding
Conditions in all cases: glycan notation: IUPAC condensed, linker removed
[1] = target: GlcNAc(b1-3)Gal(b1-4)GlcNAc(b1-3)Gal(b1-4)GlcNAc(b1-2)Man(a1-3)[GlcNAc(b1-3)Gal(b1-4)GlcNAc(b1-3)Gal(b1-4)GlcNAc(b1-2)Man(a1-6)]Man(b1-4)GlcNAc(b1-4)GlcNAc
Procedure, shortened: (§1)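 From the Consortium for Functional Glycomics database, 3228 arrays were curated, keeping only those whose protein sequence was available. Binding is given as a within-array Z-score averaged across arrays sharing a protein sequence and across linkers. Negative Z-scores can be read as non-binding.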

[2] = target: GlcNAc(b1-3)Gal(b1-4)GlcNAc(b1-3)Gal(b1-4)GlcNAc(b1-2)Man(a1-3)[GlcNAc(b1-3)Gal(b1-4)GlcNAc(b1-3)Gal(b1-4)GlcNAc(b1-2)Man(a1-6)]Man(b1-4)GlcNAc(b1-4)[Fuc(a1-6)]GlcNAc
Procedure, shortened: as §1

[3] = target: GlcNAc(b1-3)Gal(b1-4)GlcNAc(b1-3)Gal(b1-4)GlcNAc(b1-2)[GlcNAc(b1-3)Gal(b1-4)GlcNAc(b1-3)Gal(b1-4)GlcNAc(b1-6)]Man(a1-6)[GlcNAc(b1-3)Gal(b1-4)GlcNAc(b1-3)Gal(b1-4)GlcNAc(b1-2)Man(a1-3)]Man(b1-4)GlcNAc(b1-4)[Fuc(a1-6)]GlcNAc
Procedure, shortened: as §1

[4] = target: GlcNAc(b1-3)Gal(b1-4)GlcNAc(b1-3)Gal(b1-4)GlcNAc(b1-3)Gal(b1-4)GlcNAc(b1-2)Man(a1-3)[GlcNAc(b1-3)Gal(b1-4)GlcNAc(b1-3)Gal(b1-4)GlcNAc(b1-3)Gal(b1-4)GlcNAc(b1-2)Man(a1-6)]Man(b1-4)GlcNAc(b1-4)GlcNAc
Procedure, shortened: as §1

[5] = target: GlcNAc(b1-3)Gal(b1-4)GlcNAc(b1-3)Gal(b1-4)GlcNAc(b1-3)Gal(b1-4)GlcNAc(b1-2)Man(a1-3)[GlcNAc(b1-3)Gal(b1-4)GlcNAc(b1-3)Gal(b1-4)GlcNAc(b1-3)Gal(b1-4)GlcNAc(b1-2)Man(a1-6)]Man(b1-4)GlcNAc(b1-4)[Fuc(a1-6)]GlcNAc
Procedure, shortened: as §1

[6] = target: GlcNAc(b1-3)Gal(b1-4)GlcNAc(b1-3)Gal(b1-4)GlcNAc(b1-3)Gal(b1-4)GlcNAc(b1-2)[GlcNAc(b1-3)Gal(b1-4)GlcNAc(b1-3)Gal(b1-4)GlcNAc(b1-3)Gal(b1-4)GlcNAc(b1-6)]Man(a1-6)[GlcNAc(b1-3)Gal(b1-4)GlcNAc(b1-3)Gal(b1-4)GlcNAc(b1-3)Gal(b1-4)GlcNAc(b1-2)Man(a1-3)]Man(b1-4)GlcNAc(b1-4)[Fuc(a1-6)]GlcNAc
Procedure, shortened: as §1

[7] = target: GlcNAc(b1-3)Gal(b1-4)GlcNAc(b1-3)Gal(b1-4)GlcNAc(b1-3)Gal(b1-4)GlcNAc(b1-3)Gal(b1-4)GlcNAc(b1-2)Man(a1-3)[GlcNAc(b1-3)Gal(b1-4)GlcNAc(b1-3)Gal(b1-4)GlcNAc(b1-3)Gal(b1-4)GlcNAc(b1-3)Gal(b1-4)GlcNAc(b1-2)Man(a1-6)]Man(b1-4)GlcNAc(b1-4)GlcNAc
Procedure, shortened: as §1

[8] = target: GlcNAc(b1-3)Gal(b1-4)GlcNAc(b1-3)Gal(b1-4)GlcNAc(b1-3)Gal(b1-4)GlcNAc(b1-3)Gal(b1-4)GlcNAc(b1-2)Man(a1-3)[GlcNAc(b1-3)Gal(b1-4)GlcNAc(b1-3)Gal(b1-4)GlcNAc(b1-3)Gal(b1-4)GlcNAc(b1-3)Gal(b1-4)GlcNAc(b1-2)Man(a1-6)]Man(b1-4)GlcNAc(b1-4)[Fuc(a1-6)]GlcNAc
Procedure, shortened: as §1

[9] = target: GlcNAc(b1-3)Gal(b1-4)GlcNAc(b1-3)Gal(b1-4)GlcNAc(b1-3)Gal(b1-4)GlcNAc(b1-3)Gal(b1-4)GlcNAc(b1-2)[GlcNAc(b1-3)Gal(b1-4)GlcNAc(b1-3)Gal(b1-4)GlcNAc(b1-3)Gal(b1-4)GlcNAc(b1-3)Gal(b1-4)GlcNAc(b1-6)]Man(a1-6)[GlcNAc(b1-3)Gal(b1-4)GlcNAc(b1-3)Gal(b1-4)GlcNAc(b1-3)Gal(b1-4)GlcNAc(b1-3)Gal(b1-4)GlcNAc(b1-2)Man(a1-3)]Man(b1-4)GlcNAc(b1-4)[Fuc(a1-6)]GlcNAc
Procedure, shortened: as §1

[10] = target: GlcNAc(b1-3)Gal(b1-4)GlcNAc(b1-3)Gal(b1-4)GlcNAc(b1-3)GalNAc
Procedure, shortened: as §1

[11] = target: GlcNAc(b1-3)Gal(b1-4)GlcNAc(b1-3)GalNAc
Procedure, shortened: as §1

[12] = target: GlcNAc(b1-3)Gal(b1-4)GlcNAc(b1-3)[GlcNAc(b1-3)Gal(b1-4)GlcNAc(b1-3)]GalNAc
Procedure, shortened: as §1

[13] = target: GlcNAc(b1-3)Gal(b1-4)GlcNAc(b1-6)[Gal(b1-3)]GalNAc
Procedure, shortened: as §1

[14] = target: GlcNAc(b1-3)Gal(b1-4)GlcNAc(b1-6)[GlcNAc(b1-3)Gal(b1-3)]GalNAc
Procedure, shortened: as §1

[15] = target: GlcNAc(b1-3)Gal(b1-4)GlcNAc(b1-6)[GlcNAc(b1-3)]Gal(b1-4)GlcNAc
Procedure, shortened: as §1

GlcNAc(b1-3)GalNAc = target: GlcNAc(b1-3)GalNAc
Procedure, shortened: as §1

GlcNAc(b1-3)Man = target: GlcNAc(b1-3)Man
Procedure, shortened: as §1

[16] = target: GlcNAc(b1-3)[GlcNAc(b1-4)][GlcNAc(b1-6)]GlcNAc
Procedure, shortened: as §1

[17] = target: GlcNAc(b1-3)[GlcNAc(b1-6)]Gal(b1-4)GlcNAc
Procedure, shortened: as §1

[18] = target: GlcNAc(b1-3)[GlcNAc(b1-6)]GalNAc
Procedure, shortened: as §1

[19] = target: GlcNAc(b1-4)Gal(b1-4)GlcNAc
Procedure, shortened: as §1

GlcNAc(b1-4)GlcNAc = target: GlcNAc(b1-4)GlcNAc
Procedure, shortened: as §1

[20] = target: GlcNAc(b1-4)GlcNAc(b1-4)GlcNAc
Procedure, shortened: as §1

B1: MGL (Homo sapiens), Q8IUN9 (protein)
chain: MTRTYENFQYLENKVKVQGFKNGPLPLQSLLQRLCSGPCHLLLSLGLGLLLLVIICVVGFQNSKFQRDLVTLRTDFSNFTSNTVAEIQALTSQGSSLEETIASLKAEVEGFKQERQAGVSELQEHTTQKAHLGHCPHCPSVCVPVHSEMLLRVQQLVQDLKKLTCQVATLNNNASTEGTCCPVNWVEHQDSCYWFSHSGMSWAEAEKYCQLKNAHLVVINSREEQNFVQKYLGSAYTWMGLSDPEGAWKWVDGTDYATGFQNWKPGQPDDWQGHGLGGGEDCAHFHPDGRWNDDVCQRPYHWVCEAGLGQTSQESH
[1]
  glycan array binding signal (z-score): -0.231
[2]
  glycan array binding signal (z-score): -0.229
[3]
  glycan array binding signal (z-score): -0.215
[4]
  glycan array binding signal (z-score): -0.225
[5]
  glycan array binding signal (z-score): -0.222
[6]
  glycan array binding signal (z-score): -0.219
[7]
  glycan array binding signal (z-score): -0.236
[8]
  glycan array binding signal (z-score): -0.212
[9]
  glycan array binding signal (z-score): -0.213
[10]
  glycan array binding signal (z-score): -0.253
[11]
  glycan array binding signal (z-score): -0.268
[12]
  glycan array binding signal (z-score): -0.26
[13]
  glycan array binding signal (z-score): -0.25
[14]
  glycan array binding signal (z-score): -0.241
[15]
  glycan array binding signal (z-score): -0.242
GlcNAc(b1-3)GalNAc
  glycan array binding signal (z-score): -0.231
GlcNAc(b1-3)Man
  glycan array binding signal (z-score): -0.24
[16]
  glycan array binding signal (z-score): -0.403
[17]
  glycan array binding signal (z-score): -0.239
[18]
  glycan array binding signal (z-score): -0.246
[19]
  glycan array binding signal (z-score): -0.241
GlcNAc(b1-4)GlcNAc
  glycan array binding signal (z-score): -0.243
[20]
  glycan array binding signal (z-score): -0.253
